Results: publication PMC4336329 (PLoS ONE, 2015)
The whole screen tested about 310,000 compounds, of which about 14,000 (4.5%) showed an effect of 50% or more. The effect is printed as a negative number. The list shows a part of the results.
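Note: peak tail current of the secondary pulse compared with the same well before compound.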

The molecules below were run against human ether-à-go-go-related gene (hERG) potassium channel (human, UniProt Q12809) (assay: primary screen, population patch clamp on CHO cells stably expressing hERG).
human ether-à-go-go-related gene (hERG) potassium channel, sequence (Q12809 whole entry, looked up): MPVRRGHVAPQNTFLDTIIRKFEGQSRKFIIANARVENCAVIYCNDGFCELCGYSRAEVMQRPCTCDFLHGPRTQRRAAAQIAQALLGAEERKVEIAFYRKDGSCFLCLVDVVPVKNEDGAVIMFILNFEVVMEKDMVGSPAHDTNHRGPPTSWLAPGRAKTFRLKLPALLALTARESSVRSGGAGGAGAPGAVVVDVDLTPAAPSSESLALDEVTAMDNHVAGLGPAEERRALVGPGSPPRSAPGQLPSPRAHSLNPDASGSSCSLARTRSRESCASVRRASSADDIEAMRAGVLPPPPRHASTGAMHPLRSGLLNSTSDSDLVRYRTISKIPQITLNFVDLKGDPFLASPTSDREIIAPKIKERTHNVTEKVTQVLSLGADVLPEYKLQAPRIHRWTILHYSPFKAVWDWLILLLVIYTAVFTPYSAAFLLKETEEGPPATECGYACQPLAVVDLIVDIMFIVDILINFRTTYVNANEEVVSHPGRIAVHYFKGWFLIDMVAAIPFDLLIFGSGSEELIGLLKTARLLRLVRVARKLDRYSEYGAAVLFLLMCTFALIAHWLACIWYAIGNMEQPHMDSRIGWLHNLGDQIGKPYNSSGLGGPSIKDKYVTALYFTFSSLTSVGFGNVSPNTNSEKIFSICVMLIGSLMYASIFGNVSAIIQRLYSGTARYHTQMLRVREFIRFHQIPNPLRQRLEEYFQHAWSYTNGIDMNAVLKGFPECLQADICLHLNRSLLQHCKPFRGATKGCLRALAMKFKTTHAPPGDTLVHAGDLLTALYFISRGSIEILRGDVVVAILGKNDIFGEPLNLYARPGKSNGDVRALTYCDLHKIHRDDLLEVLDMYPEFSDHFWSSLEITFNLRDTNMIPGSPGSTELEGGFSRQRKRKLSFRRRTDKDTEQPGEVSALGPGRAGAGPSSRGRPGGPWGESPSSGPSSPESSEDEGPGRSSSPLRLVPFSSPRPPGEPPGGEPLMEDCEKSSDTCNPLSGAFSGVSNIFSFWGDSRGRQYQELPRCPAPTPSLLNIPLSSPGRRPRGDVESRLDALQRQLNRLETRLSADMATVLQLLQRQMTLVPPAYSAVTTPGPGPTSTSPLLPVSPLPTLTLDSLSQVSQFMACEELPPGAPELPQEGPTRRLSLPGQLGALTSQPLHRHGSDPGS
For `CCN(CC)C1=N/C(=C\c2ccco2)C(=O)N1c1ccccc1`, the “hERG current change (%, negative = inhibition) at 10uM” value was -6.68%. In the case of `CCCc1nnc(SCC(=O)N2CCCC(C)C2)n1CC1CCCO1` (stereo not drawn), the “hERG current change (%, negative = inhibition) at 10uM” value is reported as 14.1%. With `Cc1cccc(NP(=O)(Oc2ccccc2)Oc2ccccc2)c1C` the “hERG current change (%, negative = inhibition) at 10uM” value was -16.9%. With `Cc1nc(NC(=O)c2cc3c(C)nn(-c4ccccc4)c3s2)sc1C(=O)Nc1ccccc1` the “hERG current change (%, negative = inhibition) at 10uM” value was 12.3%. In the case of `COc1cc(C(=O)N(Cc2ccccn2)CC2CCCO2)cc(OC)c1OC.Cl` (stereo not drawn), the “hERG current change (%, negative = inhibition) at 10uM” value is reported as -11.1%. For `Cc1ccc(C(=O)OCC(=O)N2CCc3ccccc32)cc1`, the “hERG current change (%, negative = inhibition) at 10uM” value was 14.7%. `c1ccc(OCCOCCSc2ncccn2)cc1` was tested, and the “hERG current change (%, negative = inhibition) at 10uM” value was 1.32%. In the case of `O=C(NCCN1C(=O)S/C(=C\c2ccc(F)cc2)C1=O)c1cccc(S(=O)(=O)N2CCOCC2)c1`, the “hERG current change (%, negative = inhibition) at 10uM” value is reported as -3.04%. For `CO/N=C/CC(=O)c1cnc(-c2ccccc2)s1`, the “hERG current change (%, negative = inhibition) at 10uM” value was 9.2%. In the case of `Cc1nc2ncnn2c(C)c1CCC(=O)Oc1ccccc1`, the “hERG current change (%, negative = inhibition) at 10uM” value is reported as -5.02%. For `CNC(=O)COC(=O)/C=C/c1cccs1`, the “hERG current change (%, negative = inhibition) at 10uM” value was 13.6%. For `CCN(CCn1cccn1)C(=O)c1cc(COc2c(F)cccc2F)on1`, the “hERG current change (%, negative = inhibition) at 10uM” value was 0.76%. In the case of `CC(C)c1ccc(/C=N/NC(=O)c2cccc(S(=O)(=O)N3CCOCC3)c2)cc1`, the “hERG current change (%, negative = inhibition) at 10uM” value is reported as 10.1%. In the case of `Cc1ccc(N=C2NC(=O)c3cccc([N+](=O)[O-])c32)cc1`, the “hERG current change (%, negative = inhibition) at 10uM” value is reported as -16.9%. With `CCCC(CCC(=O)Nc1ccn(-c2ccccc2)n1)C(=O)O` (stereo not drawn) the “hERG current change (%, negative = inhibition) at 10uM” value was 4.5%. For `COc1ccc(-n2nc3c(c2NC(=O)c2cc4ccccc4o2)CS(=O)(=O)C3)cc1`, the “hERG current change (%, negative = inhibition) at 10uM” value was -12.4%. `O=C(/C=C/c1cccs1)c1cc(Br)ccc1OC(=O)N1CCOCC1` was tested, and the “hERG current change (%, negative = inhibition) at 10uM” value was -38%. For `CCOC(=O)/C(C#N)=C1/C=C(C)NC(c2ccccc2O)=N1`, the “hERG current change (%, negative = inhibition) at 10uM” value was 11.7%. `Cc1cc(C)nc(NS(=O)(=O)c2ccc(N/C=C/C(=O)c3ccc(Cl)cc3)cc2)n1` was tested, and the “hERG current change (%, negative = inhibition) at 10uM” value was -7.81%. With `Cc1csc(NC(=O)C2CSC3(C)CCC(=O)N23)n1` (stereo not drawn) the “hERG current change (%, negative = inhibition) at 10uM” value was 2.32%. In the case of `COc1cc(C(=S)N2CCOCC2)ccc1OC(=O)c1ccc(Br)cc1`, the “hERG current change (%, negative = inhibition) at 10uM” value is reported as 12.7%. With `CC(=O)Nc1cccc(NS(=O)(=O)c2cn(C)c(=O)n(C)c2=O)c1` the “hERG current change (%, negative = inhibition) at 10uM” value was -8.88%. For `CCOc1ccccc1NC(=O)C(=O)N/N=C/c1ccc([N+](=O)[O-])cc1`, the “hERG current change (%, negative = inhibition) at 10uM” value was -13.2%. In the case of `COc1ccc(NC(=O)CN(C)C(=O)CN2C(=O)c3ccc([N+](=O)[O-])cc3C2=O)cc1`, the “hERG current change (%, negative = inhibition) at 10uM” value is reported as 3.33%. For `N#Cc1cc(Cl)c(NCC2CCCO2)cc1C#N` (stereo not drawn), the “hERG current change (%, negative = inhibition) at 10uM” value was 7.45%. `O=C(Nc1ccccc1C(=O)NC1CCCCC1)c1ccccc1` was tested, and the “hERG current change (%, negative = inhibition) at 10uM” value was -11.2%. With `CN1CCN(c2ccc(S(=O)(=O)N3CCCCC3)cc2NC(=O)Cc2ccc(Cl)cc2)CC1` the “hERG current change (%, negative = inhibition) at 10uM” value was -72%. For `COc1ccc(OCCCC(=O)OCC(=O)Nc2nnc(-c3ccccc3)o2)cc1`, the “hERG current change (%, negative = inhibition) at 10uM” value was -12.2%. In the case of `COc1ccc(N(Cc2cc3cc(OC)ccc3[nH]c2=O)S(C)(=O)=O)cc1`, the “hERG current change (%, negative = inhibition) at 10uM” value is reported as -0.157%. In the case of `COc1cccc(C2Cc3ccccc3C(=O)O2)c1` (stereo not drawn), the “hERG current change (%, negative = inhibition) at 10uM” value is reported as 8.03%. With `O=C(NCc1ccncc1)c1c(F)c(F)c(F)c(F)c1F` the “hERG current change (%, negative = inhibition) at 10uM” value was -4.03%. `Cc1nc(SCc2ccc(Cl)c(Cl)c2)ncc1C(=O)O` was tested, and the “hERG current change (%, negative = inhibition) at 10uM” value was 5.06%. `COc1ccc(-c2nc(-c3ccc(NC(=O)c4ccc(Br)o4)cc3)no2)cc1OC` was tested, and the “hERG current change (%, negative = inhibition) at 10uM” value was 14.1%. In the case of `CC(C)CC1(C)N=C(c2ccccc2)C(=S)N1` (stereo not drawn), the “hERG current change (%, negative = inhibition) at 10uM” value is reported as 8.32%. With `Cc1ccc(C2N(c3ccc(Cl)cc3)C(=O)N3CCCN23)cc1` (stereo not drawn) the “hERG current change (%, negative = inhibition) at 10uM” value was -1.05%. With `COc1cccc(NC(=O)CC(=O)c2ccc([N+](=O)[O-])cc2)c1` the “hERG current change (%, negative = inhibition) at 10uM” value was 0.117%. For `O=C1N(c2ccccc2)C(=Nc2ccccc2)SC12CC2`, the “hERG current change (%, negative = inhibition) at 10uM” value was 3.07%. In the case of `COCc1cccc(C(=O)NC(c2ccccc2)c2ccccc2)c1`, the “hERG current change (%, negative = inhibition) at 10uM” value is reported as -27.2%. For `CCCn1c(C)cc(/C=C(\C#N)C(=O)OCC(=O)NC(=O)NC(C)(C)C)c1C`, the “hERG current change (%, negative = inhibition) at 10uM” value was 5.81%. For `O=C(CN1CCN(Cc2ccc3c(c2)OCO3)CC1)c1c[nH]c2ccccc12`, the “hERG current change (%, negative = inhibition) at 10uM” value was -63.5%. `O=C(COC(=O)c1cccc(Cl)c1Cl)NCc1cccs1` was tested, and the “hERG current change (%, negative = inhibition) at 10uM” value was 5.46%. `CC(C)c1ccc(-n2ccnc2SCC(=O)O)cc1` was tested, and the “hERG current change (%, negative = inhibition) at 10uM” value was 11.2%. For `Cc1cccc(N2CCN(CC(=O)NCC3CCCCC3)CC2)c1C.Cl`, the “hERG current change (%, negative = inhibition) at 10uM” value was -6.63%. In the case of `Cc1ccc(C)c(C(=O)CC2(O)C(=O)N(C)c3ccccc32)c1` (stereo not drawn), the “hERG current change (%, negative = inhibition) at 10uM” value is reported as 8.85%. With `COC(=O)CSc1nnc(SCc2ccccc2)s1` the “hERG current change (%, negative = inhibition) at 10uM” value was 7.89%. With `CC(C)N1C(=O)CCC1C(=O)NCCc1ccc(Cl)cc1` (stereo not drawn) the “hERG current change (%, negative = inhibition) at 10uM” value was 1.9%. `COc1ccccc1NS(=O)(=O)c1ccc(C(=O)NCC(c2ccco2)N(C)C)cc1` (stereo not drawn) was tested, and the “hERG current change (%, negative = inhibition) at 10uM” value was -0.744%. For `CCOC(=O)/C=C/C(=O)OCC(=O)Nc1cccc(Br)c1`, the “hERG current change (%, negative = inhibition) at 10uM” value was 0.304%. For `N#CCC(=O)Nc1ccc(C(=O)OCC(=O)Nc2cccc(C(F)(F)F)c2)cc1`, the “hERG current change (%, negative = inhibition) at 10uM” value was 3.19%. With `COCc1c(C#N)c(NCc2cc(OC)c(OC)c(OC)c2)nc(C)c1[N+](=O)[O-]` the “hERG current change (%, negative = inhibition) at 10uM” value was -12.2%. In the case of `CCN(CC)S(=O)(=O)c1ccc(Cl)c(C(=O)NCC2CCCO2)c1` (stereo not drawn), the “hERG current change (%, negative = inhibition) at 10uM” value is reported as 10.3%. In the case of `O=C(CN1CCN(c2ccccc2)CC1)Nc1ccncc1`, the “hERG current change (%, negative = inhibition) at 10uM” value is reported as 7.9%. `Cc1nn(C)cc1C(N)=O` was tested, and the “hERG current change (%, negative = inhibition) at 10uM” value was 0.619%. In the case of `O=c1c2cccnc2[nH]c(=S)n1CCCN1CCN(c2ccc(F)cc2)CC1`, the “hERG current change (%, negative = inhibition) at 10uM” value is reported as -26.1%. With `CN(C(=O)CSc1ncnc2sc(-c3ccccc3)cc12)C1CCS(=O)(=O)C1` (stereo not drawn) the “hERG current change (%, negative = inhibition) at 10uM” value was -15.9%. With `CCOC(=O)[C@@H]1[C@H]2COc3cc(OC)ccc3[C@@H]2N2C(=O)N(c3ccc(Br)cc3)C(=O)[C@]12C` the “hERG current change (%, negative = inhibition) at 10uM” value was -3.09%. With `CCN(CC)c1ccc(NC(=O)c2ccc(Cl)nc2)cc1` the “hERG current change (%, negative = inhibition) at 10uM” value was 14.9%.
